Assay results reported in PMC4336329 (PLoS ONE, 2015).
In all, about 310,000 compounds went through this assay and about 2,200 (0.71%) showed an effect of 50% or more. Effects have a minus sign here. This is one part of the list.

Target: human ether-à-go-go-related gene (hERG) potassium channel (human, UniProt Q12809)
Assay: primary screen, population patch clamp on CHO cells stably expressing hERG

Chain of human ether-à-go-go-related gene (hERG) potassium channel (Q12809 whole entry, looked up): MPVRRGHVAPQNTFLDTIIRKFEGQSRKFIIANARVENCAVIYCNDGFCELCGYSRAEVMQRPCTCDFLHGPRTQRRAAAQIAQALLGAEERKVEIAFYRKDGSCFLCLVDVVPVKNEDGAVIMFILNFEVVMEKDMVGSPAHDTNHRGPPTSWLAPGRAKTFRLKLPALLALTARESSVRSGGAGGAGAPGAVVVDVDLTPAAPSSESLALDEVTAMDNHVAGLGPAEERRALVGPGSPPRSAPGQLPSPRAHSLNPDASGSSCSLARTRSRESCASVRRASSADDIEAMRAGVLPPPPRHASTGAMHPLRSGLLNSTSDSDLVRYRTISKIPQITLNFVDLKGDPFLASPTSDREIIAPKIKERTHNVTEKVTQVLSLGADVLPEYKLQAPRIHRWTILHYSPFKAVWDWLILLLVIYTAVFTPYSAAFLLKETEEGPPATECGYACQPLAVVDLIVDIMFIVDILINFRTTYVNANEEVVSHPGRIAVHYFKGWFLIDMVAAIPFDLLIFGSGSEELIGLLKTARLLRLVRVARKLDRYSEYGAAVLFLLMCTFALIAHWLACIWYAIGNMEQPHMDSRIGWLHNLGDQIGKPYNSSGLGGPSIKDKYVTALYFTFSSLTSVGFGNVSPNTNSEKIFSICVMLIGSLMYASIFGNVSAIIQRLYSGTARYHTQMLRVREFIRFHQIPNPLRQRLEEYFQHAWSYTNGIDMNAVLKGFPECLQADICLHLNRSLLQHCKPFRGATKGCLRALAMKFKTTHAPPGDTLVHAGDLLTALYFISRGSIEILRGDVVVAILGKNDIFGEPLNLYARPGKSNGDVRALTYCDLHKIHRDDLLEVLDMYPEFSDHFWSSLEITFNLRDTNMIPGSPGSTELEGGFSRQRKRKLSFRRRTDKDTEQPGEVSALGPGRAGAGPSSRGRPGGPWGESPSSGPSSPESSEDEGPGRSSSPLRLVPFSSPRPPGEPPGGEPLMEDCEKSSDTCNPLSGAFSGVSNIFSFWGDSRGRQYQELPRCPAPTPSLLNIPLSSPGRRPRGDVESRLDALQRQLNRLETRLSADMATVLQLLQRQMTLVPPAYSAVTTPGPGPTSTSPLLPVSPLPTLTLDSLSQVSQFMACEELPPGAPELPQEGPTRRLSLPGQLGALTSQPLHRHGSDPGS

| SMILES | hERG current change (%, negative = inhibition) at 1uM |
| --- | --- |
| O=C(CN(Cc1ccco1)C(=O)c1cc(=O)[nH]c2ccccc12)Nc1ccccc1Br | -2.41% |
| COc1ccccc1-c1csc(-n2ncc(C#N)c2N)n1 | 29.4% |
| CCOC(=O)C1(Cc2ccc(OC)cc2)CCN(C(=O)Cn2cnnn2)CC1 | -0.482% |
| O=c1ccc(Cl)cn1Cc1ccccc1F | 0.163% |
| COC(=O)c1ccccc1NC(=O)CCCCCn1nnc2ccccc2c1=O | 17% |
| COc1ccc(C2(C)NC(=O)N(CC(=O)NC3CCCC3)C2=O)cc1OC (centres unmarked) | 17.7% |
| O=C(/C=C/c1ccccc1Cl)N(Cc1ccccc1)C1CCS(=O)(=O)C1 (centres unmarked) | 6.7% |
| C=CCSc1nc2ccccc2c(=O)n1C1CCOC(C)(C)C1 (centres unmarked) | 34.1% |
| O=c1c2cc(N3CCOCC3)ccc2[nH]c(=S)n1CCCN1CCN(c2ccccc2F)CC1 | 0.408% |
| CC(C(=O)N1CCc2ccccc21)N1CCN(Cc2ccccc2)CC1 (centres unmarked) | 4.18% |
| O=S1(=O)N=C(N2CCc3ccccc3C2)c2ccccc21 | -8.05% |
| COc1ccc(C(CC(=O)O)NC(=O)c2sc3ccccc3c2Cl)cc1 (centres unmarked) | 4.51% |
| COc1cc(OC)cc(C(=O)N/N=C/c2ccc(OC)c(COc3ccc4ccccc4c3)c2)c1 | 10.8% |
| O=C(Nc1cccc2ncccc12)C(c1ccccc1)c1ccccc1 | 6.03% |
| COc1ccc(CCNCc2ccsc2)cc1OC | 17.8% |
| COc1ccc(CC(=O)n2[nH]c(=O)cc(C)c2=O)cc1OC | 6.44% |
| O=C(NNC(=O)c1ccc(-n2cncn2)c([N+](=O)[O-])c1)c1ccccc1 | 13% |
| Cc1ccc(Cl)cc1NC(=O)CCn1cccc1 | 10.3% |
| CC(C)C(c1nnnn1Cc1ccco1)N1CCN(c2cccc(Cl)c2)CC1 (centres unmarked) | 9.2% |
| CCSC1=C(C#N)C(c2ccc(C)s2)CC(=O)N1 (centres unmarked) | 5.87% |

| SMILES | hERG current change (%, negative = inhibition) at 1uM |
| --- | --- |
| C#CCSc1nc(=O)c2cccnc2n1-c1ccc(C)cc1 | -1.46% |
| O=c1c2ccccc2c(-c2ccccc2)nn1Cc1ccc(Cl)cc1 | 14.3% |
| O=C(Cc1ccc(Br)cc1)N1CCCC1 | 12.1% |
| CCOCCCNC(=O)Cn1nc(Cc2ccncc2)c2ccccc2c1=O | 10.8% |
| Cc1nn(-c2cccc(Cl)c2)c2nc(C(F)(F)F)[nH]c(=O)c12 | 9.58% |
| CCc1ccc(N2CC(C(=O)NCC(C)(C)N3CCOCC3)CC2=O)cc1 (centres unmarked) | 12.8% |
| CCCc1cc(C(=O)Nc2cc(C)ccc2O)no1 | 7.19% |
| CCCC(=O)N(CCN(C(=O)CCC)c1ccccc1)c1ccccc1 | 5.23% |
| NC(=O)CN1N=C(c2cc(Cl)sc2Cl)CSC1=O | -1.93% |
| N#Cc1nc(Cc2ccccc2)oc1NCc1ccccc1 | -4.62% |
| N#C/C(=C\c1c(F)cccc1Cl)C(=O)NC1CC1 | -5.1% |
| O=C(O)c1ccc(NC(=O)C2CC=CCC2C(=O)O)cc1 (centres unmarked) | -12% |
| COCCN(C(=O)COC(=O)c1sccc1C)c1c(N)n(Cc2ccccc2)c(=O)[nH]c1=O | 13.2% |
| CC1Cc2ccccc2N1C(=O)CSc1nnc2c(n1)[nH]c1ccc(F)cc12 (centres unmarked) | 10.8% |
| Cc1[nH]c(C)c(S(=O)(=O)NCc2ccc(Cl)cc2)c1C(=O)N1CCCC1 | 19.2% |
| O=C(Cc1ccccc1)N/N=C/c1ccc(OC(=O)/C=C\c2ccco2)cc1 | 6.29% |
| CCOC(=O)Cc1nn(CC)c(=O)c2ccccc12 | 16.9% |
| O=C1Nc2cc(C(=O)N3CCOCC3)ccc2SC1N1CCOCC1 (centres unmarked) | 7.61% |
| O=C(Cn1nnc(-c2ccc(CN3CCOCC3)cc2)n1)NC1CCCCC1 | -7.82% |
| CCCC(c1nnnn1C(C)(C)CC)N1CCN(C2CCCC2)CC1.Cl (centres unmarked) | -17.8% |

| SMILES | hERG current change (%, negative = inhibition) at 1uM |
| --- | --- |
| COC(=O)c1cccnc1NC(=S)NC(C)C | 1.57% |
| C/C(=N\NS(=O)(=O)c1ccc(C)cc1)c1ccc(C)s1 | 15.4% |
| Cc1ccc(C(=O)C2CCN(CC(=O)Nc3nc(C)cs3)CC2)cc1 | -7.31% |
| COCCN(C(=O)c1ccc(C#N)cc1)c1c(N)n(Cc2ccccc2)c(=O)[nH]c1=O | 9.54% |
| c1ccc2nc3c(cc2c1)CCCCCC3 | 12.4% |
| Cc1cccc(NC(=O)CSCC(=O)Nc2cccc3ncccc23)c1 | 10.2% |
| CN1CCC/C1=C/C=C1\SC(=S)NC1=O | 7.98% |
| CCc1ccc(NC(=O)CCS(=O)(=O)c2ccc(Br)cc2)cc1 | 22.3% |
| COc1ccccc1NC(=O)C1=C(C)Nc2nnnn2C1c1ccccn1 (centres unmarked) | 13.2% |
| O=C(NCCCN1CCOCC1)c1ccc2ccccc2c1 | 0.695% |
| CCC1C/C(=C/c2ccco2)C(=O)/C(=C/c2ccco2)C1 (centres unmarked) | 1.75% |
| Cl.O=C(/C=C/c1cn(-c2ccccc2)nc1-c1cccnc1)NCCN1CCOCC1 | 12% |
| COc1ccc(NC(=O)CN2CCCCCC2)cc1OC | 7.92% |
| CCOC(=O)Nc1ccc(=O)n(Cc2c(Cl)cccc2Cl)c1 | 6.44% |
| Cc1oc2cc(O)cc(C)c2c(=O)c1-c1cnn(-c2ccccc2)c1 | 8.07% |
| COc1ccccc1C1CC(c2ccc(NS(C)(=O)=O)cc2)=NN1C(=O)c1ccccc1 (centres unmarked) | -6.92% |
| CC(=O)Nc1ccc(S(=O)(=O)n2nc(-c3ccc(C)cc3)nc2N)cc1 | 15.1% |
| CN1C(C(=O)N2CCC3(CC2)OCCO3)=CC(c2ccc(F)cc2)=NS1(=O)=O | 12.1% |
| CCOC(=O)NN1C(=O)c2ccccc2NC1c1ccccn1 (centres unmarked) | 11.9% |
